Data as given in article PMC3962387 (2014).

Target: Amyloid-beta 1-42 oligomers 1-42 (Homo sapiens, UniProt P05067)
Assay: fluorescence cell-binding assay (AβOs-FITC on EphA4-Flag HEK293 cells)

B1: EphA4 (protein)
chain: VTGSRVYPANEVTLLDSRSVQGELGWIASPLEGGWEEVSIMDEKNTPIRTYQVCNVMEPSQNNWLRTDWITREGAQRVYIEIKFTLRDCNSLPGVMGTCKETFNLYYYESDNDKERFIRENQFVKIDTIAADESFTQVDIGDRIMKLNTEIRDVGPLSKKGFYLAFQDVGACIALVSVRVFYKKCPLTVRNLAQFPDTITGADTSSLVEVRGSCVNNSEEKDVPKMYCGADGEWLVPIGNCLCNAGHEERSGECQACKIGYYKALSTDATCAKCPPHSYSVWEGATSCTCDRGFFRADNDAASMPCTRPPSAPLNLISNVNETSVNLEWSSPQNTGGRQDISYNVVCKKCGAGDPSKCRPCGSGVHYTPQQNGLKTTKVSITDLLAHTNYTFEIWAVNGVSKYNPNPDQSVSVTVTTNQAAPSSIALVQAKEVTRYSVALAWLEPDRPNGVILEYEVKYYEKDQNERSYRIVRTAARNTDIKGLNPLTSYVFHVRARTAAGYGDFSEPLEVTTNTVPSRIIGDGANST
In the case of B1, the Kd is reported as 22 µM.
